Results published in PubChem BioAssay AID504706 (National Center for Advancing Translational Sciences (NCATS), 2011).
Hit rate of the full screen: of about 320,000 compounds, about 200 (0.062%) were called active. Inconclusive results, whose numbers are uncertain, are shown with a selection of clear calls. The call rests on the fitted dose curve; in most records, active means well fitted activation curve with a large enough effect; inconclusive means small, poorly fitted or top-dose-only effect; inactive means no such curve, though single readings can be large or run the other way. Potencies of inconclusive entries are left out as doubtful fits.

assay: qHTS assay for re-activators of p53 using a Luc reporter; conditions: H1299 p53-A138V BP100-luciferase reporter, luminescence, 24 h; series mostly up to 92.2 µM; further: nearly all actives have a fitted effect of over 45% in size
Procedure, shortened: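 p53-null H1299 cells stably carrying temperature-sensitive p53-A138V and a BP100-luciferase reporter were pinned with compounds (4-point, 1:5 series) and held 24 hrs at 37 deg C. Luminescence was read 10 min after detection reagent.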
Potency means the concentration at half of the fitted maximal effect; tags describe the fitted curve by direction and shape.

Q: Which Potency does the source give for Cc1nc2c(c(=O)c3ccccc3n2C)c(=O)n1-c1ccc(F)cc1 here?
A: Its Potency is “inactive”.

Q: Which Potency does the source give for O=C(NNC(=S)Nc1ccccc1)c1cccs1 here?
A: The Potency was inconclusive [activator, partial curve, poor fit].

Q: Which Potency does the source give for COc1cccc(Oc2ccc(C(F)(F)F)cc2N)c1 here?
A: Its Potency is inconclusive [activator, full curve, poor fit].

Q: With COc1ccccc1CN=c1c([N+](=O)[O-])nn(-c2ccc3c(c2)OCCO3)n1O as the compound, how does the Potency read?
A: Its Potency is inconclusive [activator, full curve, poor fit].

Q: For Cc1ccc(CNc2cc(-c3nn4c(C)nnc4s3)ccc2C)s1, which Potency is on record?
A: The Potency was “inactive”.

Q: For Cc1nc2ccc(NC(=O)C3CCCCC3)cc2s1, which Potency is on record?
A: The Potency was inconclusive [activator, partial curve, poor fit].

Q: Which Potency does the source give for c1ccc2c(-c3cn4ccccc4n3)c[nH]c2c1 here?
A: Its Potency is inconclusive [activator, partial curve, poor fit].

Q: With O=C(Cc1ccccc1)Nc1ccc(N2CCCC2)cc1 as the compound, how does the Potency read?
A: Its Potency is “inactive”.

Q: With CCC(NC(=O)C1CCCO1)c1ccccc1 (stereo not given) as the compound, how does the Potency read?
A: Its Potency is inconclusive [activator, partial curve, poor fit].

Q: With Cc1cccc(/C=N/NC(=O)C[n+]2ccccc2)c1 as the compound, how does the Potency read?
A: Its Potency is “inactive”.

Q: Which Potency does the source give for Cc1cccc(C(=O)NCC2CCCO2)c1 (stereo not given) here?
A: The Potency was inconclusive [activator, full curve, poor fit].

Q: Which Potency does the source give for Cc1cccc(C(=O)OCC(=O)c2ccc3c(c2)OCCO3)c1O here?
A: The Potency was inconclusive [activator, full curve, poor fit].

Q: Which Potency does the source give for O=C(Nc1ccc(Cl)c(C(F)(F)F)c1)NC1CC2CCCC(C1)N2Cc1ccccc1 (stereo not given) here?
A: Its Potency is “inactive”.

Q: Which Potency does the source give for CCc1ccc(NC(=O)c2cccnc2)cc1 here?
A: Its Potency is inconclusive [activator, full curve, poor fit].

Q: For Cc1cccc(C(=O)OCC(=O)N2CCc3ccccc3C2)c1O, which Potency is on record?
A: The Potency was inconclusive [activator, partial curve, poor fit].

Q: Which Potency does the source give for O=C(Nc1cccc2nsnc12)c1ccc2c(c1)OCO2 here?
A: Its Potency is inconclusive [activator, partial curve, poor fit].

Q: With Cc1ccc(NC(=O)NCCN2C(=O)C3C4C=CC(C4)C3C2=O)cc1 (stereo not given) as the compound, how does the Potency read?
A: The Potency was inconclusive [activator, partial curve, poor fit].

Q: For O=C(N/N=C/c1c[nH]c2ccccc12)c1cccc([N+](=O)[O-])c1, which Potency is on record?
A: The Potency was “inactive”.

Q: For CN(C)S(=O)(=O)c1cccc(NC(=S)N/N=C/C(=O)c2ccccc2)c1, which Potency is on record?
A: Its Potency is inconclusive [activator, full curve, poor fit].

Q: For Cc1cc(=O)oc2cc(OCC(=O)N3CCOCC3)ccc12, which Potency is on record?
A: Its Potency is “inactive”.

Q: Which Potency does the source give for Cc1nc2cc3ccccc3cc2n1C here?
A: The Potency was inconclusive [activator, single point].

Q: Which Potency does the source give for COc1cc(OC)nc(NC(C)=O)n1 here?
A: The Potency was “inactive”.

Q: For Cc1cc(N)n(-c2cc(C)c3ccccc3n2)n1, which Potency is on record?
A: The Potency was “inactive”.

Q: With CC(C)(C)n1cnc2cc(NC(=O)c3ccco3)ccc21 as the compound, how does the Potency read?
A: Its Potency is inconclusive [activator, partial curve, poor fit].

Q: With CC(C)Oc1cccc(C(=O)NC(=S)Nc2ccccc2N2CCOCC2)c1 as the compound, how does the Potency read?
A: The Potency was inconclusive [activator, single point].

Q: With CCC(O)CNC(=O)NC(=C(Cl)Cl)c1ccc(C)c(F)c1 (stereo not given) as the compound, how does the Potency read?
A: The Potency was inconclusive [activator, full curve, poor fit].

Q: For COc1ccc(C(=O)/C=C/c2ccccc2)c(O)c1, which Potency is on record?
A: Its Potency is inconclusive [activator, partial curve].

Q: Which Potency does the source give for CC(C)(C)n1ncc2c(=O)n(CC(=O)NCc3ccco3)cnc21 here?
A: The Potency was inconclusive [activator, full curve, poor fit].

Q: With Cc1ccc(O)c(N=Cc2ccc(C)s2)c1 as the compound, how does the Potency read?
A: The Potency was inconclusive [activator, partial curve, poor fit].

Q: With Cc1cccc(NC(=S)NCc2cccs2)c1 as the compound, how does the Potency read?
A: The Potency was “inactive”.

Q: Which Potency does the source give for Cc1ccc(C(=O)Cc2nnc(C)s2)cc1 here?
A: The Potency was inconclusive [activator, partial curve, poor fit].

Q: Which Potency does the source give for Cc1onc(-c2ccccc2)c1C(=O)NNC(=S)NC(=O)c1ccc2c(c1)OCO2 here?
A: The Potency was inconclusive [activator, partial curve, poor fit].

Q: For CCCc1ccc(-c2csc(NC(=O)C3=COCCO3)n2)cc1, which Potency is on record?
A: Its Potency is inconclusive [activator, full curve].

Q: With COc1ccc(N2CCN(C(CNC(=O)OCc3ccccc3)c3ccco3)CC2)cc1 (stereo not given) as the compound, how does the Potency read?
A: Its Potency is inconclusive [activator, single point].

Q: For Cc1[nH]c(N=Nc2ccccc2)nc1N=Nc1ccccc1, which Potency is on record?
A: Its Potency is inconclusive [activator, partial curve, poor fit].

Q: Which Potency does the source give for O=C(Nc1ccc2oc(=O)ccc2c1)c1ccco1 here?
A: Its Potency is “inactive”.

Q: For CCC(C)N=C1SCC(C)(/C=N/O)S1 (stereo not given), which Potency is on record?
A: Its Potency is inconclusive [activator, full curve, poor fit].

Q: For COc1ccccc1C(=O)OCC(=O)c1ccc(CNC(C)=O)s1, which Potency is on record?
A: The Potency was “inactive”.

Q: With CCn1c(C)cc(C(=O)CSc2nnc(-c3ccco3)o2)c1C as the compound, how does the Potency read?
A: Its Potency is inconclusive [activator, partial curve, poor fit].

Q: For CN(Cc1ccsc1)C(=O)Cn1cc(Br)ccc1=O, which Potency is on record?
A: The Potency was inconclusive [activator, partial curve, poor fit].

Q: For CCOc1ccccc1OCC(=O)Nc1cccc(S(=O)(=O)NC2=NCCCCC2)c1, which Potency is on record?
A: The Potency was “inactive”.

Q: Which Potency does the source give for CCOC(=O)c1c(C)[nH]c(C(=O)COC(=O)[C@H](C)NC(=O)c2ccccc2Cl)c1C here?
A: The Potency was inconclusive [activator, full curve, poor fit].

Q: Which Potency does the source give for O=C(Nc1ccc(N2CCCCCC2)cc1)c1cccc(S(=O)(=O)N2CCOCC2)c1 here?
A: Its Potency is inconclusive [activator, single point].

Q: Which Potency does the source give for Cc1ccc(S(=O)(=O)NCc2ccco2)cc1C here?
A: Its Potency is “inactive”.

Q: Which Potency does the source give for Cc1ccc(-c2nnn(CCC(=O)N3CCCCC3C)n2)cc1 (stereo not given) here?
A: Its Potency is inconclusive [activator, partial curve, poor fit].
